Test results: PubChem BioAssay AID1030 (National Center for Advancing Translational Sciences (NCATS), 2008)
The whole screen tested about 220,000 compounds, of which about 16,000 (7.3%) were called active. The inconclusive results got no clear call from the source; some entries with a clear call stand among them for comparison. Calls follow the shape of the dose curve; as a rule, active = well fitted inhibition curve with a large enough effect (not every such curve was filed as active); inconclusive = small, poorly fitted or top-dose-only effect, or another doubt; inactive = no such curve, though single readings can be large or run the other way. No potency is given beside an inconclusive call; the fits are too rough.

target: Aldehyde dehydrogenase 1A1 (Homo sapiens) (UniProt P00352); test: qHTS Assay for Inhibitors of Aldehyde Dehydrogenase 1 (ALDH1A1); conditions: Purified ALDH1A1, NADH fluorescence, propionaldehyde substrate; series mostly up to 75.3 µM; activity, negative = inhibition: at the top concentration;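 as to activity, negative = inhibition: plate controls were no enzyme wells and a reference inhibitor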
UniProt P00352, sequence (P00352 whole entry, looked up): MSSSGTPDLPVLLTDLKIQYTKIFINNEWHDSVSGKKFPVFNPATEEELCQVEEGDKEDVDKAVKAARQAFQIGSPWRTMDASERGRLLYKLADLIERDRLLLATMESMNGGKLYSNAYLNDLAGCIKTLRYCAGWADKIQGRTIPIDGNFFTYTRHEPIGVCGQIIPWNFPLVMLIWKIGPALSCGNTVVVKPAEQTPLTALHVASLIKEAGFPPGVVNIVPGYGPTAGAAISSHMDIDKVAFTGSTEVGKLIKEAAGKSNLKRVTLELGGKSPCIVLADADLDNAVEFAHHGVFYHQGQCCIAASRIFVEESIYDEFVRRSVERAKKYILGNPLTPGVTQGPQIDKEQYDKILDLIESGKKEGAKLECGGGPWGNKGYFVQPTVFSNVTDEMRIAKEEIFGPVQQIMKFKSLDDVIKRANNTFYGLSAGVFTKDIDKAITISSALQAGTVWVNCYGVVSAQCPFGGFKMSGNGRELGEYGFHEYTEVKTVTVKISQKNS
Potency is read from the fitted curve at half-maximal effect; tags tell the direction and shape of the fitted curve.

Row | SMILES | Potency | activity, negative = inhibition
1 | Cc1cc(-c2csc(NC(=O)c3ccc(=O)n(C)n3)n2)c(C)n1CC1CCCO1 (centres undefined) | active: 20 µM | –
2 | O=C(O)CCc1ccc(-c2ccccc2)n1-c1cccc(O)c1 | inconclusive [inhibitor, partial curve] | –
3 | CC1(C)NC(=O)N(CC(=O)OCC(=O)Nc2cc(S(=O)(=O)N3CCCCCC3)ccc2Cl)C1=O | inconclusive [inhibitor, partial curve] | –
4 | CCCCc1cc2c(cn1)=C(OC(=O)CCC(=O)OC)C(C)(OC(=O)CC)C(=O)C=2 (centres undefined) | inconclusive [inhibitor, partial curve] | –
5 | COc1ccc(S(=O)(=O)N(Cc2ccc(OC)c(OC)c2)Cc2ccco2)cc1 | inconclusive [inhibitor, partial curve] | –
6 | Cc1ncc(CO)c(/C=N/NC(=O)c2ccc(Br)cc2)c1O | inconclusive [inhibitor, single point] | –
7 | CC1(C)SC2[C@H](NC(=O)C(NC(=O)N3CCNC3=O)c3ccccc3)C(=O)N2C1C(=O)O (some centres undefined) | – | inactive: 2.51%
8 | CCOC(=O)C1CCN(c2cc(=O)n(C3CCCCC3)c(=O)[nH]2)CC1 | inconclusive [inhibitor, full curve] | –
9 | COc1cccc(NC(=S)NC(=O)c2c(Cl)c(C)nn2C)c1 | inconclusive [inhibitor, single point] | –
10 | CC1=C(C(=O)Nc2ccc(C)cc2C)C(c2ccc(C)o2)NC(=O)N1 (centres undefined) | – | inactive: 10.3%
11 | COc1ccc(CCNC(=O)c2cc(CC(C)C)on2)cc1OC | inconclusive [inhibitor, partial curve] | –
12 | CCCc1ccc(-c2c(C)sc(NC(=O)c3ccnn3C)c2C#N)cc1 | inconclusive [inhibitor, single point] | –
13 | CCN1C(=O)c2cccc3c(S(=O)(=O)N(C(=O)c4ccncc4)c4ccc(OC)cc4)ccc1c23 | inconclusive [inhibitor, partial curve] | –
14 | COc1cc(C(=O)NC(=S)Nc2ccc([N+](=O)[O-])cc2C)cc(OC)c1OC | active: 12.6 µM | –
15 | CC1(C)C2CCC1(C)C(OC(=O)c1ccc(O)cc1)C2 (centres undefined) | – | inactive: -5.65%
16 | Cc1c(-c2n[nH]c(=S)n2-c2ccc(C(F)(F)F)cc2)nnn1-c1ccccc1 | inconclusive [inhibitor, single point] | –
17 | Cc1ccc(-c2nn(-c3ccccc3)cc2/C=N/NC(=O)c2ccc(Br)o2)cc1 | inconclusive [inhibitor, partial curve] | –
18 | Cc1cc(C(=O)COC(=O)CN=C2NS(=O)(=O)c3ccccc32)c(C)n1CCc1ccc(Cl)cc1 | – | inactive: 15.4%
19 | Cc1nc(NC2CCCCC2)c2nc(-c3ccccc3)n(C(C)CN(C)C)c2n1 (centres undefined) | inconclusive [inhibitor, partial curve] | –
20 | O=C(NCCN1CCc2ccccc2C1)Nc1ccc([N+](=O)[O-])cc1 | inconclusive [inhibitor, single point] | –
21 | O=C(N/N=C/C1CC=CCC1)c1ccc(Cl)cc1O (centres undefined) | inconclusive [inhibitor, single point] | –
22 | CC1(C)Cc2c(sc3ncn4nc(CCC(=O)O)c(=O)nc4c23)CO1 | inconclusive [inhibitor, partial curve] | –
23 | CC(C)CNC(=O)C(=O)NNC(=O)C1CCCCC1 | – | inactive: 10%

Row | SMILES | Potency | activity, negative = inhibition
24 | CSCCC(=O)N1C(C)CCCC1C(=O)O (centres undefined) | inconclusive [inhibitor, single point] | –
25 | CCn1c(=O)cc(SCC(=O)N2CCC(C)CC2)c2ccccc21 | active: 20 µM | –
26 | Cc1ccc(SCCOCCN2CCc3ccccc3C2)cc1 | – | inactive: -11.6%
27 | N#Cc1c(=O)c2nc(NCc3ccccc3)ncc2n2ccccc12 | inconclusive [inhibitor, single point] | –
28 | COc1cc(/C=C(\C#N)c2nc3ccc(C)cc3[nH]2)cc([N+](=O)[O-])c1O | – | inactive: -5.97%
29 | Cc1cc([N+](=O)[O-])c(-c2ccc(/C=N/n3cnnc3)o2)cc1Cl | – | inactive: 4.82%
30 | COC(=O)C1=C(C)N(CCc2c[nH]c3ccc(OC)cc23)C(=O)C1 | active: 17.8 µM | –
31 | CCc1nc(CN2CCCC(C(=O)c3ccc4c5c(cccc35)CC4)C2)c(C)[nH]1 (centres undefined) | inconclusive [inhibitor, single point] | –
32 | CCN(CC)c1ccc(NC(=O)c2cnn(CC)c2)cc1 | – | inactive: 1.97%
33 | COc1ccc(N2CC(O)=C(c3nc4ccccc4s3)C2=N)cc1 | inconclusive [inhibitor, single point] | –
34 | O=C(/C=C/c1ccco1)NCCc1ccccc1 | active: 22.4 µM | –
35 | N#C/C(=C/c1ccc([N+](=O)[O-])cc1)C(N)=O | inconclusive [inhibitor, single point] | –
36 | O=C(c1csnn1)N1CCC2(CCCN(c3ccc(-c4ccccc4)cc3)C2)CC1 | – | inactive: -12.9%
37 | COc1cc2c(cc1NC(=O)Cc1ccc(C)cc1)oc1ccccc12 | inconclusive [inhibitor, single point] | –
38 | CCC1CCCCN1C(=S)NC(=O)c1ccc([N+](=O)[O-])cc1 (centres undefined) | active: 35.5 µM | –
39 | N#Cc1c(-c2ccccc2)nc2n(-c3ccccc3)nc(C(=O)Nc3ccccc3)n2c1=O | – | inactive: -12.3%
40 | CC1CCCN(S(=O)(=O)c2ccccc2[N+](=O)[O-])C1 (centres undefined) | – | inactive: 4.16%
41 | COc1cccc(CNc2ccc3c(c2)ncn3C(C)C)c1OC | inconclusive [inhibitor, partial curve] | –
42 | COC(=O)c1ccccc1S(=O)(=O)N1CCn2cccc2C1C (centres undefined) | inconclusive [inhibitor, single point] | –
43 | COC(=O)c1ccccc1-c1ccc(/C=C2\C(=O)N(c3ccccc3)N=C2c2ccccc2)o1 | – | inactive: 9.5%
44 | COC(=O)CCC(=O)Nc1cccc(C(=O)Nc2cccc(Cl)c2)c1 | inconclusive [inhibitor, single point] | –
45 | CCOc1cc(C=O)ccc1OCC(=O)NC(C)(C)C | inconclusive [inhibitor, partial curve] | –
46 | COc1ccc(N(CC(=O)Nc2cccnc2)S(C)(=O)=O)cc1 | – | inactive: 1.36%

Row | SMILES | Potency | activity, negative = inhibition
47 | S=c1nc(C2COc3ccccc3O2)[nH][nH]1 (centres undefined) | inconclusive [inhibitor, single point] | –
48 | O=C(CCCn1c(=S)[nH]c2cc3c(cc2c1=O)OCO3)N1CCN(c2ccc(Cl)cc2)CC1 | inconclusive [inhibitor, single point] | –
49 | Cc1ccc(-n2c(C)nnc2SCC(=O)N2CCc3ccccc3C2)cc1C | inconclusive [inhibitor, single point] | –
50 | O=C(C1=NN[C@@H]2C(=O)N(c3cccc(F)c3)C(=O)[C@H]12)C(c1ccccc1)c1ccccc1 | inconclusive [inhibitor, single point] | –
51 | O=[N+]([O-])c1ccc(Cl)cc1N1CCCCC1 | active: 17.8 µM | –
52 | Cc1cc(C(=O)N2CCN(c3ncccc3C#N)CC2)no1 | inconclusive [inhibitor, partial curve] | –
53 | CCSc1ncnc2c1sc1nc3c(cc12)COC(C)(C)C3 | active: 0.794 µM | –
54 | O=c1c2ccccc2nc(/C=C/c2cccc([N+](=O)[O-])c2)n1CCO | inconclusive [inhibitor, single point] | –
55 | Cc1ccc(S(=O)(=O)NC(C(=O)Oc2ccc3c(C)c(Cl)c(=O)oc3c2)c2ccccc2)cc1 (centres undefined) | inconclusive [inhibitor, partial curve] | –
56 | Cc1ccc(CSc2sc(C(=O)c3ccccc3)c(N)c2C#N)cc1 | inconclusive [inhibitor, single point] | –
57 | COc1ccc(-n2c(=O)cnc3cnc(N4CCNCC4)nc32)cc1 | inconclusive [inhibitor, single point] | –
58 | O=C(NC(=S)NNS(=O)(=O)c1ccccc1)c1ccc([N+](=O)[O-])cc1 | inconclusive [inhibitor, single point] | –
59 | COc1ccccc1N1CCN(C(=O)c2ccc(S(=O)(=O)N3CCCC3)cc2)CC1 | inconclusive [inhibitor, partial curve] | –
60 | COc1ccc(Cc2n[nH]c(=S)n2NC(=O)Nc2ccc(C)cc2)cc1 | inconclusive [inhibitor, single point] | –
61 | Cc1ccc(S(=O)(=O)NCCC(c2ccc(F)cc2)c2ccco2)cc1 (centres undefined) | inconclusive [inhibitor, single point] | –
62 | FC(F)Oc1ccc(-c2csc(NNC3=NCCCCC3)n2)cc1 | inconclusive [inhibitor, single point] | –
63 | Cc1ccc(CSCC(=O)N2CCCC2)cc1 | – | inactive: -1.33%
64 | C(=N\c1nc2ccccc2n1CCN1CCCCC1)/c1ccc2c(c1)OCO2 | inconclusive [inhibitor, single point] | –
65 | CCN(CC)CCN(Cc1cc2cc3c(cc2[nH]c1=O)OCCO3)C(=O)NC1CCCCC1 | inconclusive [inhibitor, single point] | –
66 | CCn1c(SCC(=O)c2ccc(C)cc2)nnc1-c1ccncc1 | inconclusive [inhibitor, single point] | –
67 | OCn1ncn(-c2ccccc2)c1=S | inconclusive [inhibitor, single point] | –
68 | N#C/C(=C1\CCCN1)c1nc(-c2ccccc2)cs1 | inconclusive [inhibitor, single point] | –
69 | CN(CC(=O)Nc1ccccc1Oc1ccccc1)Cc1ccccc1F | inconclusive [inhibitor, partial curve] | –
